Reference: paper PMC6212790
Some of the results follow. At the low end of the ranking, values are background and their order means little.

Each sequence was assayed against T1, GST-Rok-C97-191 (UniProt O34857) (assay: protein binding microarray). Conditions: Rok is a gene silencer of Bacillus subtilis; high values mean tight binding; most listed sequences are background and not binding sites; double strand, one strand shown.
T1 sequence: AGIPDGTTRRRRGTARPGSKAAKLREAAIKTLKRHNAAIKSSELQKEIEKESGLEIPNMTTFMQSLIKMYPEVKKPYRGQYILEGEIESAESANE
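Also: rank score from −0.5 (least bound) to 0.5 (best bound).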

Sequence | binding signal [E-score]
GTAGTCAC | -0.0737
CCCCATGC | -0.336
GACTTCGA | -0.015
ACGTCTGC | -0.0679
AAAGTGAT | 0.00366
CCGCGCAC | -0.349
CGGGTACG | -0.0523
AGATCCAT | 0.0146
CCCACTTA | 0.0808
AGGGTAGA | 0.0919
CAGCCTTC | -0.302
AGACACTG | -0.0905
GTATGCAC | -0.112
AGTTCGAG | 0.141
AGCCCTCC | -0.294
GGCAAAGA | -0.188
AGGTGTAT | 0.188
ATAGATGA | 0.0596
GAGCTCCC | -0.153
GGTTAAAA | 0.121
ATAGCCAC | 0.0249
CCTTAAAC | -0.218
CTGCGCGC | -0.118
GCGGATAA | -0.00117
CGAAGGTA | 0.0456

Sequence | binding signal [E-score]
CCCGGACG | -0.305
CAGTCGTC | -0.184
GAGTCTGC | -0.311
TTCGAAAA | -0.0651
GTGGTATA | 0.271
TAATGCTA | 0.221
CTGTCTGC | -0.129
AACTTGGG | -0.0135
AGCTAGGA | -0.00935
CTGAGATA | 0.0982
CGTATTCC | 0.127
AGAATTCT | 0.283
GTACGAGA | 0.0751
CCCATAGC | -0.0764
CATAGTGC | -0.076
GAGGACGA | -0.327
ATATCAGC | -0.037
CGCTAAGA | 0.00882
TGTGCGAA | -0.197
GGATCCCA | -0.17
AGCCCGGA | -0.155
AAGGATTA | -0.00535
ATATCATC | 0.267
AAAGTAAC | 0.0559
ATATCATG | 0.18

Sequence | binding signal [E-score]
CACGTGCC | -0.106
AAATACAT | 0.359
CCGAGAGC | -0.243
TACACCAA | 0.0785
ACGCTGAG | -0.137
AGGCATAC | -0.0482
CTGCCGTA | -0.00883
AACAGGCA | -0.131
GGGGGACA | -0.0919
CTACCAGC | 0.169
GGTCTCCA | -0.155
GCATTTCC | -0.322
CGCACTGA | -0.0641
AGAAATTA | 0.344
CGGTATCC | -0.0945
AGGCGTAT | 0.112
GGAGGATA | -0.0638
ATACAGCA | -0.0641
GAGGCCAA | -0.21
GATTGTCC | -0.092
CATACAAC | 0.122
AGAACGCC | 0.0453
ACGCATTA | 0.134
CCACTTAG | -0.0775
GGTCGACC | -0.163

Sequence | binding signal [E-score]
AATAGCGA | 0.0723
GAGCGCGC | -0.115
CTGGTAAC | 0.0974
CCATTATA | 0.161
AGTGTCTA | 0.121
CCGTCAAA | -0.226
ACAGTTAC | 0.225
CCCGTCAG | -0.19
CGATGCAG | 0.0322
ATGTTCGC | -0.133
GGCGGCCC | -0.274
ACGTCGCT | -0.0803
AACCCTAA | -0.116
CTCTCATA | -0.153
CAGCCGAG | -0.172
CCGGCCGG | -0.337
ATTCATGC | 0.131
CTACGGGA | -0.116
ATATAAAT | 0.419
CCGCGTGC | -0.155
CGCGCCTC | -0.466
TACACCTA | 0.212
CCCAGTCG | -0.237
CGTACTGA | 0.0539
ATTAAATA | 0.211

Sequence | binding signal [E-score]
AGATAGGC | 0.141
ACGCAGGA | -0.153
CCTGACAC | -0.29
CATGAAAG | -0.0316
AATTTCCC | 0.153
ATTCGGCG | -0.168
GACGGCGC | -0.357
CGATAGAG | -0.176
CGTATACA | 0.145
TACAATCA | 0.247
CGAACAAG | -0.0407
AATTTCGG | 0.147
CGAAGAGC | -0.0298
AGACCTAT | 0.0709
ACGACCTA | 0.00188
CGGCGTAC | -0.11
TACGCTAA | 0.0519
GGCTTATA | 0.16
CCTACGAA | 0.125
ATAGTACA | 0.347
GCAAATGA | 0.0361
CGTGACCC | -0.195
AAGCTGCA | -0.104
ATAGTCAC | -0.0193
AATACCGG | 0.266

Sequence | binding signal [E-score]
CGGGACTC | -0.166
TCCCACAA | 0.0517
AAACGCCA | -0.0367
AAAGCATC | -0.231
AGATAGCA | 0.148
CACCGAGC | -0.0689
AATCCCAT | 0.0708
CAGTGGCG | -0.125
CGGTAAGA | -0.0738
ATAACGGC | 0.0469
CTTTGCAA | -0.0434
ATCTCGGC | -0.174
TCGGGAAA | -0.0763
ATGGAGGC | -0.123
GCGAACCC | -0.221
AAATTATA | 0.389
CATAAGGA | -0.0502
CGGCAATA | 0.0655
ACGTCATA | 0.0678
CGTGCAGC | -0.0438
GAAGTATC | 0.233
AGAGCGAT | -0.0668
CGGCCACA | -0.185
GAAGCCGA | -0.0818
AGTAGCTG | 0.233

Sequence | binding signal [E-score]
GAATGCAC | -0.122
GCGGTCAA | -0.29
AATTCACC | 0.0722
CACCTATG | -0.117
GTGTAGTA | 0.305
AGCAAGGA | -0.0952
TATCATAA | 0.205
AAGGTATT | 0.122
AATAACCT | 0.0611
ATGTACCC | 0.0999
GGCGGTTA | -0.109
AGACGCCA | -0.268
CTTGCATA | 0.142
GTAGCCAA | -0.12
TGCCCGAA | -0.117
CAAGATTC | -0.0861
CATCATAA | 0.194
TGAATTCA | 0.0937
CATACGGG | -0.173
CCCTTTTC | -0.189
CCGCCGCA | -0.252
AGCTCAAA | -0.00791
ACCTGGCA | -0.0345
CCGGCCCC | -0.345
AAGTCATG | 0.0095

Sequence | binding signal [E-score]
GCCCAGAC | -0.26
ACTGTTGA | 0.0617
GAGTGAAA | -0.143
CTGTACAA | 0.0696
ATGCCGCC | -0.224
CGATCTCA | -0.251
ATTACGCC | -0.0244
CTGAGGTC | -0.226
TAGCGAAA | 0.164
GCACCCGA | -0.18
CTGGGCCA | -0.181
CCATGAGC | -0.206
GTGGGCTA | -0.197
CACTTTTC | 0.0461
ATATGAAC | 0.142
AGTGTAAC | 0.00886
CCGGTTTA | -0.0155
GGCGGCTA | -0.0852
GCTTAAGC | -0.268
GTGAACTA | 0.214
ACTGGTAT | 0.149
CTCATTGA | -0.1
ACACTTGC | -0.0396
CTATTGTA | 0.355
ATAAGCTC | -0.0268

Sequence | binding signal [E-score]
GTTACCGA | 0.0867
GAACGCCC | -0.158
CAGAGTAG | -0.109
AAGACATG | -0.143
AGAATGAT | 0.217
CGGCTCCC | -0.334
AACCCGTT | -0.048
GTAACGAC | 0.157
TCCATGCA | -0.0603
GCGAGATA | 0.0526
AATCAAAT | 0.00045
AAAATATC | 0.186
AACGGACA | -0.0656
CTACCCGA | -0.0404
CATGTCAA | -0.0291
CGACCAAA | -0.039
CCGAATAC | 0.125
AACATTCA | -0.00134
CGACGTGC | -0.187
AATCACCC | -0.115
CAGGGCGA | -0.302
AACCGATT | 0.11
CGTGACTA | -0.14
ATTCGGTC | 0.134
CATTCTAC | 0.384

Sequence | binding signal [E-score]
GACAACAC | -0.0379
AAAAAAGA | -0.0705
GGTCCCGA | -0.0737
CCCGGAAC | -0.0153
AGTTTGGG | -0.0774
CGCCGACA | 0.0406
TCCGGACA | 0.0601
ATACGTAA | 0.371
AACACTAT | 0.297
ACTCGACA | -0.145
AACATCCG | 0.0335
GCTACCCA | -0.092
ATTTGTGG | 0.133
GTATTTCA | 0.131
CTCCCGCA | -0.145
CCAACTAA | 0.16
AATCATCA | 0.0436
CACGTGCG | -0.226
CAAGCTGG | -0.212
GTACCGTA | 0.0628
CGTCCCAC | -0.11
CCCTCTTA | -0.033
CAATAGTC | 0.0177
ATGGTGGA | -0.0649
GGTCGAAC | -0.0654

Sequence | binding signal [E-score]
AGAGGCCC | -0.295
CTCCGCGC | -0.247
CAATGTCG | 0.0121
CACGGTTC | -0.296
GCCCGTTA | -0.182
CCTTCGCC | -0.176
CCTCGTAG | -0.0235
ACTTGAGC | 0.191
CCCATCTC | -0.22
AGTTCGGC | -0.0233
CCTTGGTA | -0.0825
CAACACGA | -0.125
TGGCCGAA | -0.146
AAGTGTAT | 0.272
CCTTTAGA | 0.00553
CTAGCGAG | 0.0237
CCAAGGCG | -0.315
TCAACAAA | -0.0444
CCGGCGGA | -0.304
CGGTGAGC | -0.166
ACCGTGAG | -0.0654
CACCTCAC | -0.145
ACTCCAGG | -0.249
ACCGCTCT | -0.2
CGATTCAA | 0.023

Sequence | binding signal [E-score]
GACTCGCC | -0.192
ACGTATTC | 0.168
GGAGTACC | -0.103
CGGTTGCA | -0.0914
ATCTCCCA | -0.042
ATGAGCAC | -0.1
GCTTCCAA | -0.00693
AGTTTCTG | 0.0882
TAGGGACA | -0.111
CATATATG | 0.306
AAATACGC | 0.142
TGCGGAAA | 0.0934
GTAGATGA | 0.166
ATGTACTG | 0.0512
AAGATCGT | 0.037
AGAACTAA | 0.259
GCTACTCC | -0.0352
CTCGTCTA | -0.0895
GTTCAGTA | 0.213
GTAGGAAC | 0.2
CATACATG | 0.171
AGGACACC | -0.131
TCCAACGA | -0.196
CATGGATA | 0.189
GGTCCAAC | -0.24

Sequence | binding signal [E-score]
CTGCCCTA | -0.098
AAGGGCGA | -0.167
CAATCTCA | -0.00889
CCCCAAGC | -0.171
GGTCCCAC | -0.252
CAGAACTA | 0.309
ACCCCTTC | -0.315
CCCCTACA | -0.175
AACTACAA | 0.348
CCTCTCAA | -0.0855
ACATAGAC | 0.0775
CTCGGCAC | -0.153
GCGTCCCA | -0.181
TGGGTCAA | -0.189
GTGAGAAA | 0.0532
GACGACTA | 0.146
AACAAGAA | 0.00882
AAAAGACA | -0.0221
GAACATCA | 0.0213
CATGGCTA | -0.081
CACTTCAC | 0.0445
GTCGAGGA | -0.0836
GGATAAAA | 0.168
CGATCCGA | -0.0349
CCTCACTC | -0.151

Sequence | binding signal [E-score]
GGCCCAAA | -0.227
CACAGTAC | -0.0303
CGGGGATA | -0.0134
ATGAGGTC | -0.207
CATCCCAC | -0.272
ACCGACAC | 0.0159
CCATCCGA | -0.132
AGTTAGAG | 0.135
GGGTCCAC | -0.233
AAGCCCGC | -0.237
GGGATCTA | 0.28
CTAGAGAA | 0.31
TGCTGCCA | -0.222
CCTGTCCC | 0.0167
AAGCGAAG | -0.0349
GCGTGACA | -0.23
AATGTACA | 0.34
CGTCGCAC | -0.148
ATACGCAA | 0.228
